Measurements taken from publication PMC2920843 (2010).

Biological target: T1, CDC25c phosphopeptide (Homo sapiens)
T1 chain: LLCS[pT]PNGL
Assay: ITC

Kd: 705 nM
B1: PLK1 […] (protein)
chain: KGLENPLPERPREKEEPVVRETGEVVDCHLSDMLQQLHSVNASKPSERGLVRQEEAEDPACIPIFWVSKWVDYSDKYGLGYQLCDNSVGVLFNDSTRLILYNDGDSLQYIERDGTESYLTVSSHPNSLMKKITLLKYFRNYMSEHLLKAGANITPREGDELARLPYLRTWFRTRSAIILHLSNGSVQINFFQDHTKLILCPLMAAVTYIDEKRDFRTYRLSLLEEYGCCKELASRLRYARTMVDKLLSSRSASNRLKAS

Square brackets hold non-standard residues; d marks the D form. Ends that are not written are not given here. pT = C[C@@H](OP(=O)(O)O)[C@H](N)C(=O)O
